The record followed here is PubChem BioAssay AID485344 (National Center for Advancing Translational Sciences (NCATS), 2010).

For orientation: inhibition means the drop in the measured response relative to a control, in per cent.

Hit rate of the full screen: of about 340,000 compounds, about 6,900 (2%) were called active. No stated cut-off is given here; in the data, active means inhibition above about 30%; inactive means below that, where a call was filed. This is a selection; strong and weak results do not stand in their true shares. The source gives no active or inactive call for entries shown without one. More than one record can exist for a structure, and the calls need not agree.

This assay addresses D(2) dopamine receptor (Homo sapiens) (UniProt P14416). Nature of the assay: HTS Assay for Allosteric Antagonists of the Human D2 Dopamine Receptor: Primary Screen for Antagonists. Further: 0% is about no effect. As to conditions: HEK293 TREx D2 cells, calcium flux, dopamine EC80; at 10 µM; stronger effect = higher value. The essentials: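 Read-out: kinetic calcium fluorescence (1 cycle/s) in inducible HEK293 T-REx D2 cells after an EC80 dopamine addition that followed 180 s compound preincubation. Loss of the dopamine response indicates antagonism.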
UniProt P14416, sequence (P14416 whole entry, looked up): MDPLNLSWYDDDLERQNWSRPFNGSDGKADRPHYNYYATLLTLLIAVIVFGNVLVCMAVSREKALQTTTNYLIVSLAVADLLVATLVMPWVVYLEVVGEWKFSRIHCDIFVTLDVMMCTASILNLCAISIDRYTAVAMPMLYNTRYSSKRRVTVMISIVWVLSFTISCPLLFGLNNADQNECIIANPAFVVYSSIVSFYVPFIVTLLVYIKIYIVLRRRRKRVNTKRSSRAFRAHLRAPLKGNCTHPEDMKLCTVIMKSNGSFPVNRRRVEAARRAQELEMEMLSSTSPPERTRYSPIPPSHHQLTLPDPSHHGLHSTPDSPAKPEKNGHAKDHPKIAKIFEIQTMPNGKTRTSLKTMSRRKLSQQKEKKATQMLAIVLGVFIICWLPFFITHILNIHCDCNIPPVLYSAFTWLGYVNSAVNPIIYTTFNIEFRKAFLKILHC
(In general: Calcium assays in cells follow changes in intracellular calcium, usually with a dye or a luminescent sensor.)
In the case of `CC(C)Sc1ncc(Cl)c(C(=O)Nc2ccc(S(=O)(=O)N(C)c3ccccc3)cc2)n1`, the inhibition turned out to be 6.04%.

For the compound `Fc1ccc2ncc3c(-c4ccccc4)n[nH]c3c2c1`, the inhibition is -19.7%.

As for `COC(=O)CCn1cnc2onc(-c3cc(F)cc(F)c3)c2c1=O`, the inhibition was -19.3%.

For `Cc1ccc(C)c(CS(=O)(=O)c2cn(CC(=O)N(C(C)C)C(C)C)c3ccccc23)c1`, the inhibition turned out to be 2.2%.

Regarding `O=C(Nc1c(C(=O)Nc2ccccc2F)oc2ccccc12)c1cc2ccccc2o1`, the inhibition is -18.8%.

In the case of `COc1ccc(C2CNC(=O)C2)cc1OC1CCCC1` (configuration not stated), the inhibition was active: 71.2%.

Consider `COc1cc(C(CC(=O)NCCC(C)C)N2Cc3ccccc3C2=O)cc(OC)c1OC` (configuration not stated), for which the inhibition is -2.97%.

Consider `COc1ccc(Cl)cc1NC(=O)CN(C)C(=O)CCNC(=O)c1ccccc1OC`, for which the inhibition was active: 30.6%.

On to `COc1cc(NC(=O)CN2CCN(CC(=O)Nc3ccc(F)cc3)CC2)cc(OC)c1`, for which the inhibition was 5.22%.

For `Cc1ccccc1C(=O)NC1CC2CCCC(C1)N2Cc1ccc(Cl)cc1` (configuration not stated), the inhibition is active: 75.6%.

Regarding `Cc1cccc(N(C)C(=O)CCNS(=O)(=O)c2ccc3c(c2)CCN3C(=O)C2CC2)c1`, the inhibition is 9.02%.

As to `N#Cc1ccc(CSc2nc3c(c(=O)[nH]2)CCCC3)cc1`, the inhibition was -9.15%.

On to `Cc1ccc2c(c1)cc1c(=O)n(CC(=O)N3CCCCC3)nc(C)n12`, for which the inhibition is 10.7%.

For `Cc1cccc(N(C)C(=O)CSc2nc3ncccc3o2)c1`, the inhibition was 2.64%.

Regarding `C[C@H](N)c1nnc(SCC(=O)c2ccc(Cl)cc2)o1`, the inhibition is active: 40.4%.

With `CCc1ccc(CN2CCN(c3ncccn3)CC2)cc1`, the inhibition is active: 94.8%.

`CCc1ccc(C(=O)c2cn(CC(=O)Nc3ccc(C)c(C)c3)c3ccccc3c2=O)cc1`: the inhibition is -2.84%.

As for `O=C(NCC1CCCO1)c1c[nH]c2ccc(S(=O)(=O)Nc3cccc(C(F)(F)F)c3)cc2c1=O` (configuration not stated), the inhibition was 27.2%.

As to `COc1ccc2c(c1)c1c(c(=O)n(-c3ccccc3)c(=O)n1CC(=O)Nc1ccc(C)c(C)c1)n2C`, the inhibition is -11.8%.

Take `CN(Cc1ccccc1)S(=O)(=O)c1nnc(NC(=O)c2ccccc2)s1`: the inhibition was -21.7%.

As for `Cc1ccc(CN2CCc3nc(N4CCN(C)CC4)ncc3C2)s1`, the inhibition came out at 2.92%.

Consider `Cc1ccc(-n2ncc3c(N4CCC(Cc5ccccc5)CC4)ncnc32)cc1`, for which the inhibition came to 9.07%.

As to `O=C(c1ccc2c(c1)N(Cc1ccccc1F)C(=O)c1ccccc1S2=O)N1CCOCC1` (configuration not stated), the inhibition is -2.55%.

In the case of `CC(C)(C)CC(=O)NC1CC(=O)N(c2ccc3c(c2)OCCO3)C1` (configuration not stated), the inhibition is -4.36%.

`COc1ccccc1OCC(=O)Nc1nc(-c2ccc(Br)cc2)ns1`: the inhibition is 5.87%.

Regarding `CC(C)N(Cc1ccccc1)C(=O)CCS(=O)(=O)c1ccc2c(c1)oc(=O)n2C`, the inhibition is -6.02%.

As to `Cc1ccc(NC(=O)C2CCN(S(=O)(=O)c3c(C)noc3/C=C/c3ccco3)CC2)cc1C`, the inhibition turned out to be 7.54%.
